Molecules are shown by their SMILES. The campaign covered roughly 310,000 compounds. About 2,200 (0.71%) showed an effect of 50% or more. Effects have a minus sign here. Some of the results follow.

human ether-à-go-go-related gene (hERG) potassium channel, sequence (Q12809 whole entry, looked up): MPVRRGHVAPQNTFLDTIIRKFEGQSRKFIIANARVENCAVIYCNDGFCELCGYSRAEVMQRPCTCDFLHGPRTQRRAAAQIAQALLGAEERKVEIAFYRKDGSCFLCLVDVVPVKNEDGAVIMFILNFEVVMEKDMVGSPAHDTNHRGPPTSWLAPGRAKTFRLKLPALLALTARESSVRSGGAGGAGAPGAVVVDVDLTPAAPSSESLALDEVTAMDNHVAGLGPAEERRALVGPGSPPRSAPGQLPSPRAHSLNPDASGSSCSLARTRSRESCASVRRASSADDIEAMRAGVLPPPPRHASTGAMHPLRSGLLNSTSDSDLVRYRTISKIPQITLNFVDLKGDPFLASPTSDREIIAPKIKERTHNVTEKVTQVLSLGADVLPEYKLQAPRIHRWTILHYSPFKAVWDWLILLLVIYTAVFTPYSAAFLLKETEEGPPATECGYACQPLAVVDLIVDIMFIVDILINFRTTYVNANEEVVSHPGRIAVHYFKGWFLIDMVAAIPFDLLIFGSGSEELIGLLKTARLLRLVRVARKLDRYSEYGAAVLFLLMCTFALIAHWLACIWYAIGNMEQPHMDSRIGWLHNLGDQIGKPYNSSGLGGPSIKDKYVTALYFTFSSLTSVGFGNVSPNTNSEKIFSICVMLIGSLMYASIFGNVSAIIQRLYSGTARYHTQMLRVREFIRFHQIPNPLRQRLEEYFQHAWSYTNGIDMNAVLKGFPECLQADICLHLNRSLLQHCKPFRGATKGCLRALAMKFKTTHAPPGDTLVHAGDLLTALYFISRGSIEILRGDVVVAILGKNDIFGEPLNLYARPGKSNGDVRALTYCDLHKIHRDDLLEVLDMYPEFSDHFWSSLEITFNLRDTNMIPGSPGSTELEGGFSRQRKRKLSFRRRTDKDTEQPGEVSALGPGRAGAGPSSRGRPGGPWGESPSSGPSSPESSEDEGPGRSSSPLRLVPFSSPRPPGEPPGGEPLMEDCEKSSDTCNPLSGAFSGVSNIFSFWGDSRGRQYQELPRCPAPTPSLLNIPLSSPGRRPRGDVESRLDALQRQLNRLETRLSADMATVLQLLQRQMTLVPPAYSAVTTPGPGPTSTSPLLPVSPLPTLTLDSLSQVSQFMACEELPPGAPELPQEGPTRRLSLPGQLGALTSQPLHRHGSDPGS

This experiment addresses human ether-à-go-go-related gene (hERG) potassium channel (human, UniProt Q12809). Briefly: primary screen, population patch clamp on CHO cells stably expressing hERG.
As for `Cc1cc(N/N=C/c2ccco2)c2ccccc2n1`, the “hERG current change (%, negative = inhibition) at 1uM” value amounted to 10.7%. Turning to `O=C(NCc1ccco1)c1cc(-c2cccc(Cl)c2)on1`, the “hERG current change (%, negative = inhibition) at 1uM” value was 9.02%. For the molecule `CCSc1nnc(-c2ccccc2N=Cc2c(C)[nH]n(-c3ccccc3)c2=O)c(=O)[nH]1`, the “hERG current change (%, negative = inhibition) at 1uM” value was 13.1%. The same measure for `O=C(CN1CCOCC1)OCCCC1CCCCC1`: 12.1%; for `CCn1c(=O)cc(SCC(=O)Nc2ccc(OC)c(OC)c2)c2ccccc21`: 10.1%.

With `CC(Sc1ccccc1)C(=O)N1CCN(S(=O)(=O)c2ccccc2F)CC1` (stereo not drawn), the “hERG current change (%, negative = inhibition) at 1uM” value came out at 11.5%.

In the case of `Cc1nc(C)c(C(=O)OCC(=O)Nc2ccccc2)s1`, the “hERG current change (%, negative = inhibition) at 1uM” value is 2.04%. Consider `COc1ccc(-c2nnc(SCC(=O)OC3CCCCC3)o2)cc1OC`, for which the “hERG current change (%, negative = inhibition) at 1uM” value turned out to be 13.5%. Next, `Cc1cccc(NC(=O)C[n+]2cccc(C)c2)c1.[Cl-]`: 1.4%. Next, `Nc1nnc(SCC(=O)NNC(=O)c2ccc(F)cc2)s1`: 3.01%; `CCCCNC(=O)CCn1nc(-c2ccccc2)ccc1=O`: -13.9%; `Cc1ccc(C)c(CN2CCSCC2)c1`: 12%. The same measure for `O=C1C=C2C=C[C@H]3C[C@]2(O1)[C@@H]1CCCCN13`: 16.3%; for `CCCCc1nc(SCC(=O)Nc2cc(C)on2)n[nH]1`: 11.8%; for `CN1CCc2cc3c(c4c2C1CC41CCC(=NO)CC1)OCO3` (stereo not drawn): 4.82%.

As to `CCOc1ccc(N(C(=O)Nc2ccccc2)C2=NCCC2)cc1`, the “hERG current change (%, negative = inhibition) at 1uM” value is listed as 8.32%. The same measure for `CCN(CC)S(=O)(=O)c1cccc(NN=c2c(=O)c3ccccc3c2=O)c1`: 11.5%; for `CCOc1ccc(CCNC(=O)c2nccnc2C(=O)O)cc1OCC`: 17.1%; for `CC(=O)c1ccc(NC(=O)CCOc2cc(C)ccc2C)cc1`: -0.606%. For `Cc1ccc(S(=O)(=O)N2CCN(S(=O)(=O)N(C)C)CC2)cc1`, the “hERG current change (%, negative = inhibition) at 1uM” value was 7.16%. In the case of `Cc1cccc(NC(=O)COc2ccccc2C(=O)NC(C)c2ccccc2)c1` (stereo not drawn), the “hERG current change (%, negative = inhibition) at 1uM” value is recorded as 15.8%. As for `COc1cc([N+](=O)[O-])cc(/C=N/NC(=O)c2cc(-c3ccccc3)nc3ccccc23)c1O`, the “hERG current change (%, negative = inhibition) at 1uM” value is given as 8.9%. Take `COc1ccc(-c2nc(SC(CC(=O)NCc3ccccc3)c3ccc(OC)c(OC)c3)n[nH]2)cc1` (stereo not drawn): the “hERG current change (%, negative = inhibition) at 1uM” value was determined as 11.3%. Next, `COCc1c(C(=O)N2CCN(c3ncccn3)CC2)oc2ccccc12`: 15.7%. The same measure for `O=C(CCCn1c(=O)[nH]c2cc(Cl)ccc2c1=O)NCCC1=CCCCC1`: 13.3%. Next, `COc1ccc2cnn(CCOc3ccccc3)c(=O)c2c1OC`: -0.693%. On to `Cc1ccc2[nH]cc(CCNC(=O)C3CCCCC3)c2c1`, for which the “hERG current change (%, negative = inhibition) at 1uM” value came out at 12.3%. The same measure for `O=[N+]([O-])c1ccc(NC2CCN(Cc3ccccc3)CC2)c2ccncc12`: 13.2%.

With `COc1ccc(COc2cccc(C=O)c2)cc1`, the “hERG current change (%, negative = inhibition) at 1uM” value was determined as 17.5%. The same measure for `CN(C(=O)c1coc(=O)c2ccccc12)c1ccc(F)cc1`: 9.4%; for `Br.CC(C)(C)C(=O)Cn1c(NCCCO)nc2ccccc21`: 5.43%; for `CCOC(=O)c1c(CSc2ccsc2)n(C)c2cc(Br)c(O)c(CN(C)C)c12.Cl`: -88.5%.

As to `COCCN=C1Sc2nc3ccc(C)cc3cc2CN1Cc1cccs1`, the “hERG current change (%, negative = inhibition) at 1uM” value was 3.73%. The same measure for `CCN(CC)c1ccc(C(=O)NC(=S)Nc2cc(S(=O)(=O)N3CCOCC3)ccc2-n2cncn2)cc1`: 0.698%; for `[Cl-].c1ccc(Cn2c[n+](Cc3ccccc3)cn2)cc1`: 6.03%; for `COc1ccc(C2CC(c3ccccc3)=NN2C(=O)c2cccs2)cc1` (stereo not drawn): 0.986%. The same measure for `CCN1CCN(CC(=O)Nc2cc3c(cc2C(C)=O)OCO3)CC1.O=C(O)C(=O)O`: 4.25%; for `CCOC(=O)c1ccc(NC(=O)CN2C(=O)NC3(CCCCCC3)C2=O)cc1`: 7.54%; for `C=CCSc1nnc(NC(=O)CN2C(=O)NC3(CCCC3)C2=O)s1`: 9.31%.

For `CNC(=O)c1cccnc1Nc1cccc(C(F)(F)F)c1`, the “hERG current change (%, negative = inhibition) at 1uM” value is given as 5.42%. As to `Cc1noc(C)c1COc1ccccc1C(=O)Nc1cccc(S(=O)(=O)N(C)C)c1`, the “hERG current change (%, negative = inhibition) at 1uM” value is -18.5%. The same measure for `CC(=O)Nc1c2c(nn1-c1ccc(C)cc1)CS(=O)(=O)C2`: 16.8%; for `Cc1cccc(-n2c(SCC(=O)N3CC(=O)Nc4ccccc43)nc3ccccc3c2=O)c1`: 11.5%; for `Cc1ccc2c(c1)c(C)c(C)n2CC(O)Cn1nnc2ccccc21` (stereo not drawn): 12.4%.

On to `COc1cccc(CNC(=O)C2CCCN(S(=O)(=O)c3c(C)noc3/C=C/N(C)C)C2)c1` (stereo not drawn), for which the “hERG current change (%, negative = inhibition) at 1uM” value is 7.14%. Take `Cc1ccc(C(=O)NC2CCN(Cc3ccccc3)CC2)cc1S(=O)(=O)N1CCOCC1`: the “hERG current change (%, negative = inhibition) at 1uM” value worked out at 4.96%.

For the molecule `COc1cc(NC(=O)c2cccc([N+](=O)[O-])c2C)ccc1NC(=O)c1ccco1`, the “hERG current change (%, negative = inhibition) at 1uM” value is given as 7.67%. Next, `Cc1nc(C)c(C(=O)NNS(=O)(=O)c2ccccc2)s1`: 9.95%; `CCOc1ccc(-c2n[nH]c(=S)n2/N=C/c2cc3c(cc2[N+](=O)[O-])OCO3)cc1`: 6.98%; `CC(C)OCCCNC(=O)c1cn(C)c2ccc(S(=O)(=O)N3CCCC3)cc2c1=O`: 17.7%. `CC(=O)c1ccc(OC(C)C)c(CC(C(N)=O)C(N)=O)c1`: the “hERG current change (%, negative = inhibition) at 1uM” value was 16.3%.

On to `O=C(CSc1nc2ccccc2[nH]1)c1c[nH]c2ccccc12`, for which the “hERG current change (%, negative = inhibition) at 1uM” value worked out at 13.9%. Next, `O=C(Nc1ccc(C(F)(F)F)cc1)N1CCN(c2ccnc3cc(Cl)ccc23)CC1`: -0.0947%; `COc1ccccc1C(=O)NNC(=O)c1ccncc1`: 14.9%; `Cc1ccc(S(=O)(=O)N(C)C)cc1NC(=O)c1cc(-c2ccco2)nc2ccccc12`: 15.6%.

Consider `Cc1ccc2[nH]c(-c3ccccc3)c(CN3CCN(C)CC3)c(=O)c2c1`, for which the “hERG current change (%, negative = inhibition) at 1uM” value worked out at 1.75%.

Consider `Cc1ccc(N2CC(C(=O)Nc3nnc(SCC(=O)Nc4nc(C)cs4)s3)CC2=O)cc1` (stereo not drawn), for which the “hERG current change (%, negative = inhibition) at 1uM” value was 13.9%.
